From the RNAGym collection of RNA variant scans (doi:10.1093/nar/gkz1192)
The source gives no read counts; variants with many changes may rest on few reads.

B1: CPEB3 Ribozyme (parent)
chain: UAACAGGGGGCCACAGCAGAAGCGUUCACGUCGCAGCCCCUGUCAGAUUCUGGUGAAUCUGCGAAUUCUGCUGUAUAUCUC

Variants of: B1
Experiment: self-cleavage, relative activity (ratio to wild type); higher = more cleavage; in vitro, sequencing
Procedure, shortened: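 Barcoded CPEB3 ribozyme mutants, produced by rounds of error-prone PCR, self-cleaved while being transcribed with T7 RNA polymerase for 5 hours at 37°C and during a subsequent 15 min DNase I step before EDTA was added. Sequencing of template-switched cDNA on Illumina gave cleaved and total reads, and DNA sequencing assigned barcodes to variants. Each variant's relative activity is its cleaved/total read fraction divided by the unmutated ribozyme's fraction, averaged across three batches. A variant needed a minimum of 5 reads.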

Row | Variant | self-cleavage
1 | U26A U67C U72C | 0.24
2 | U26A U67C U74C A75U | 0.1
3 | U26A U69A G70C | 0.22
4 | U26A U69A U72C | 0.3
5 | U26A U69G U76C | 0.4
6 | U26A U72A U78A U80A | 1.08
7 | U26A U72A U78C | 0.81
8 | U26C A28C C37U U72C | 0.09
9 | U26C A28C G55A U72A | 0.17
10 | U26C A28C U49C U69C | 0.32
11 | U26C A28C U54A A57G A64U C68G | 0.04
12 | U26C A28C U60C | 0.14
13 | U26C A28C U67A U80C | 0.09
14 | U26C A28G A35G G36A A64G U74C | 0.21
15 | U26C A28G A35G U41A U48C | 0.23
16 | U26C A28G A35U | 0.16
17 | U26C A28G A35U U74A | 0.14
18 | U26C A28G A45G U54C | 0.4
19 | U26C A28G A45G U60A | 0.15
20 | U26C A28G A45U U69C | 0.12
21 | U26C A28G A56U A64G | 0.18

Row | Variant | self-cleavage
22 | U26C A28G A64U U69G | 0.04
23 | U26C A28G C29U C38U A56G C62G U78A | 0.09
24 | U26C A28G C38A | 0.16
25 | U26C A28G C40U U54C U58C U60C | 0
26 | U26C A28G C44U U66C U72A | 0.05
27 | U26C A28G G30C U41C G55U | 0.25
28 | U26C A28G U31A U49C U58C A65G | 0.12
29 | U26C A28G U31A U67C | 0.05
30 | U26C A28G U31C G36U U43C A47U | 0.17
31 | U26C A28G U41A U80C | 0.08
32 | U26C A28G U43A A65G | 0.14
33 | U26C A28G U54A | 0.43
34 | U26C A28G U54A A56U | 0.31
35 | U26C A28G U54C C62G | 0.15
36 | U26C A28G U60C | 0.14
37 | U26C A28G U76A | 0.14
38 | U26C A28G U80C | 0.43
39 | U26C A28U A35G G46A A57G G63A | 0.16
40 | U26C A28U A35U U58C U69A | 0.06
41 | U26C A28U A56G A64U | 0.09
42 | U26C A28U A57G | 0.25

Row | Variant | self-cleavage
43 | U26C A28U G73A | 0.77
44 | U26C A28U U31A U51A U54A U60A C71U | 0.13
45 | U26C A28U U31C U49C U74A | 0.06
46 | U26C A28U U43C U49A U54C | 0.15
47 | U26C A28U U54C U72A | 0.11
48 | U26C A28U U72A | 0.19
49 | U26C A35G A45G A64G U66C U80C | 0.21
50 | U26C A35G A56G A65U U69C | 0.28
51 | U26C A35G A56U | 0.87
52 | U26C A35G C38U C44A | 0.41
53 | U26C A35G C50U U67A | 0.67
54 | U26C A35G G53C | 1.1
55 | U26C A35G U41A | 0.1
56 | U26C A35G U41A A56G G63A U69C U78C | 0.08
57 | U26C A35G U41A U69A | 0.1
58 | U26C A35G U41C U51C | 0.74
59 | U26C A35G U41G G70A U80C | 0.19
60 | U26C A35G U43A U60C | 0.12
61 | U26C A35G U48C U51C G52C | 0.23
62 | U26C A35G U48G | 0.51
63 | U26C A35G U49C | 0.34

Row | Variant | self-cleavage
64 | U26C A35G U49C U78C | 0.59
65 | U26C A35G U51C | 1.03
66 | U26C A35G U58A U76C | 0.65
67 | U26C A35G U58C A65U U72C U74G | 0.22
68 | U26C A35G U58C U67C U74C | 0.19
69 | U26C A35G U74A | 1.17
70 | U26C A35G U76C | 1.17
71 | U26C A35U A45G A47U A65G U76A | 0.05
72 | U26C A35U A45U U51C A56G U66C U76A | 0.13
73 | U26C A35U A47G U67C U69A U72C | 0.08
74 | U26C A35U A56G | 0.2
75 | U26C A35U A57G | 0.19
76 | U26C A35U C37U A45U U51A | 0.06
77 | U26C A35U G42A U43G A56G | 0.14
78 | U26C A35U U41C A47G U48A U51C C81G | 0.23
79 | U26C A35U U48C G52A | 0.38
80 | U26C A35U U54C A56U G70C | 0.13
81 | U26C A35U U58C U69C | 0.12
82 | U26C A35U U66C | 0.24
83 | U26C A35U U69C | 0.13
84 | U26C A35U U74A | 0.18
